# Data published in the supplement of paper PMC8728848.
# Some of the results follow.
# Experiments:
# Experiment in all cases: glycan array binding signal (z-score within array); higher = stronger binding
# Conditions in all cases: glycan notation: IUPAC condensed, linker removed
# [1] = biological target: Gal(b1-3)[Fuc(a1-4)]GlcNAc
# Procedure, shortened: (§1)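 The binding signal is a Z-score computed within each array. Data were drawn from 3228 arrays in the Consortium for Functional Glycomics database, restricted to those with a known protein sequence. Scores were averaged over arrays of the same protein sequence at different concentrations or buffers, and over linkers, and negative values can be taken as non-binding.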
# [2] = biological target: Gal(b1-3)[Fuc(a1-4)]GlcNAc(b1-2)Man(a1-3)[Gal(b1-3)[Fuc(a1-4)]GlcNAc(b1-2)Man(a1-6)]Man(b1-4)GlcNAc(b1-4)GlcNAc
# Procedure, shortened: as §1
# [3] = biological target: Gal(b1-3)[Fuc(a1-4)]GlcNAc(b1-2)Man(a1-3)[Gal(b1-3)[Fuc(a1-4)]GlcNAc(b1-2)Man(a1-6)]Man(b1-4)GlcNAc(b1-4)[Fuc(a1-6)]GlcNAc
# Procedure, shortened: as §1
# [4] = biological target: Gal(b1-3)[Fuc(a1-4)]GlcNAc(b1-3)Gal(b1-3)[Fuc(a1-4)]GlcNAc
# Procedure, shortened: as §1
# [5] = biological target: Gal(b1-3)[Fuc(a1-4)]GlcNAc(b1-3)Gal(b1-4)GlcNAc
# Procedure, shortened: as §1
# [6] = biological target: Gal(b1-3)[Fuc(a1-4)]GlcNAc(b1-3)Gal(b1-4)[Fuc(a1-3)]GlcNAc
# Procedure, shortened: as §1
# [7] = biological target: Gal(b1-3)[GlcNAc(b1-6)]GalNAc
# Procedure, shortened: as §1
# [8] = biological target: Gal(b1-3)[Neu5Ac(a2-6)]GalNAc
# Procedure, shortened: as §1
# [9] = biological target: Gal(b1-3)[Neu5Ac(a2-6)]GlcNAc(b1-6)Gal(b1-4)Glc
# Procedure, shortened: as §1
# [10] = biological target: Gal(b1-3)[Neu5Ac(b2-6)]GalNAc
# Procedure, shortened: as §1
# [11] = biological target: Gal(b1-4)GalNAc(a1-3)[Fuc(a1-2)]Gal(b1-4)GlcNAc
# Procedure, shortened: as §1
# [12] = biological target: Gal(b1-4)GalNAc(b1-3)[Fuc(a1-2)]Gal(b1-4)GlcNAc
# Procedure, shortened: as §1
# Gal(b1-4)Glc = biological target: Gal(b1-4)Glc
# Procedure, shortened: as §1
# Gal(b1-4)Glc6S = biological target: Gal(b1-4)Glc6S
# Procedure, shortened: as §1
# Gal(b1-4)GlcNAc = biological target: Gal(b1-4)GlcNAc
# Procedure, shortened: as §1
# [13] = biological target: Gal(b1-4)GlcNAc(a1-6)Gal(b1-4)GlcNAc
# Procedure, shortened: as §1
# [14] = biological target: Gal(b1-4)GlcNAc(b1-2)Man(a1-3)Man(b1-4)GlcNAc(b1-4)GlcNAc
# Procedure, shortened: as §1
# [15] = biological target: Gal(b1-4)GlcNAc(b1-2)Man(a1-3)[Gal(b1-4)GlcNAc(b1-2)Man(a1-6)]Man(b1-4)GlcNAc(b1-4)GlcNAc
# Procedure, shortened: as §1
# [16] = biological target: Gal(b1-4)GlcNAc(b1-2)Man(a1-3)[Gal(b1-4)GlcNAc(b1-2)Man(a1-6)]Man(b1-4)GlcNAc(b1-4)[Fuc(a1-6)]GlcNAc
# Procedure, shortened: as §1
# [17] = biological target: Gal(b1-4)GlcNAc(b1-2)Man(a1-3)[GlcNAc(b1-2)Man(a1-6)]Man(b1-4)GlcNAc(b1-4)GlcNAc
# Procedure, shortened: as §1
# [18] = biological target: Gal(b1-4)GlcNAc(b1-2)Man(a1-3)[Man(a1-6)]Man(b1-4)GlcNAc(b1-4)GlcNAc
# Procedure, shortened: as §1
# [19] = biological target: Gal(b1-4)GlcNAc(b1-2)Man(a1-6)Man(b1-4)GlcNAc(b1-4)GlcNAc
# Procedure, shortened: as §1
# [20] = biological target: Gal(b1-4)GlcNAc(b1-2)Man(a1-6)[GlcNAc(b1-2)Man(a1-3)]Man(b1-4)GlcNAc(b1-4)GlcNAc
# Procedure, shortened: as §1
# [21] = biological target: Gal(b1-4)GlcNAc(b1-2)Man(a1-6)[Man(a1-3)]Man(b1-4)GlcNAc(b1-4)GlcNAc
# Procedure, shortened: as §1
# [22] = biological target: Gal(b1-4)GlcNAc(b1-2)[Gal(b1-4)GlcNAc(b1-4)]Man(a1-3)[Gal(b1-4)GlcNAc(b1-2)Man(a1-6)]Man(b1-4)GlcNAc(b1-4)GlcNAc
# Procedure, shortened: as §1
# [23] = biological target: Gal(b1-4)GlcNAc(b1-2)[Gal(b1-4)GlcNAc(b1-4)]Man(a1-3)[Gal(b1-4)GlcNAc(b1-2)[Gal(b1-4)GlcNAc(b1-6)]Man(a1-6)]Man(b1-4)GlcNAc(b1-4)GlcNAc
# Procedure, shortened: as §1
# [24] = biological target: Gal(b1-4)GlcNAc(b1-3)Gal(b1-3)GlcNAc
# Procedure, shortened: as §1
# [25] = biological target: Gal(b1-4)GlcNAc(b1-3)Gal(b1-4)Glc
# Procedure, shortened: as §1
# [26] = biological target: Gal(b1-4)GlcNAc(b1-3)Gal(b1-4)GlcNAc
# Procedure, shortened: as §1
# [27] = biological target: Gal(b1-4)GlcNAc(b1-3)Gal(b1-4)GlcNAc(b1-3)Gal(b1-4)GlcNAc
# Procedure, shortened: as §1
# [28] = biological target: Gal(b1-4)GlcNAc(b1-3)Gal(b1-4)[Fuc(a1-3)]GlcNAc(b1-3)Gal(b1-4)[Fuc(a1-3)]GlcNAc
# Procedure, shortened: as §1
# [29] = biological target: Gal(b1-4)GlcNAc(b1-3)GalNAc
# Procedure, shortened: as §1
# [30] = biological target: Gal(b1-4)GlcNAc(b1-3)[Gal(b1-4)GlcNAc(b1-6)]Gal(b1-4)GlcNAc
# Procedure, shortened: as §1
# [31] = biological target: Gal(b1-4)GlcNAc(b1-3)[Gal(b1-4)GlcNAc(b1-6)]GalNAc
# Procedure, shortened: as §1
# [32] = biological target: Gal(b1-4)GlcNAc(b1-3)[GlcNAc(b1-6)]Gal(b1-4)GlcNAc
# Procedure, shortened: as §1
# [33] = biological target: Gal(b1-4)GlcNAc(b1-6)Gal(b1-4)GlcNAc
# Procedure, shortened: as §1
# [34] = biological target: Gal(b1-4)GlcNAc(b1-6)GalNAc
# Procedure, shortened: as §1
# [35] = biological target: Gal(b1-4)GlcNAc(b1-6)[Gal(b1-3)]GalNAc
# Procedure, shortened: as §1
# Gal3S(b1-3)GalNAc = biological target: Gal3S(b1-3)GalNAc
# Procedure, shortened: as §1
# Gal3S(b1-3)GlcNAc = biological target: Gal3S(b1-3)GlcNAc
# Procedure, shortened: as §1
# [36] = biological target: Gal3S(b1-3)[Fuc(a1-4)]GlcNAc
# Procedure, shortened: as §1
# Gal3S(b1-4)Glc = biological target: Gal3S(b1-4)Glc
# Procedure, shortened: as §1
# Gal3S(b1-4)Glc6S = biological target: Gal3S(b1-4)Glc6S
# Procedure, shortened: as §1
# Gal3S(b1-4)GlcNAc = biological target: Gal3S(b1-4)GlcNAc
# Procedure, shortened: as §1
# Gal3S(b1-4)GlcNAc6S = biological target: Gal3S(b1-4)GlcNAc6S
# Procedure, shortened: as §1
binder,measurement,setting,value
"cupB6 (Pseudomonas aeruginosa), Q02SP7 (protein) MSMRLFPGRVSLRRRPGAQARQALVLGLCCLTGGQAWALNEVALNCSFGNGKGLPWRVVNELTSGTAKGTVLFARPVSLFLSYKPQASQEAHELVLGGNWSGVGYPGPYGTVASDVKGIGYRISVDAQDGVKRVIPVDNQPHALDKRVTSFSGSTTSDYLQELVLTVDPGELPAGDLKVTSVSGSATLNLWAVDRLKGEASIGSVLAVPADNYPTGVCRKPYSLIGPASIAIGGGPPPPPIPKKCKVEVGREINVKLGSVALKNFPRVNDTSTERSFDISLSECAALAKPEIAFRDKYVSAQQADPTILSLKSGGAAGFGIVVKNGLDQQRIRFDGTPYPMRRVGDSADLPLSAAYIRIGAEGELKAGVADGAAEFTFTFP",glycan array binding signal (z-score),[1],-0.046
same,glycan array binding signal (z-score),[2],0.019
same,glycan array binding signal (z-score),[3],0.028
same,glycan array binding signal (z-score),[4],0.014
same,glycan array binding signal (z-score),[5],0.149
same,glycan array binding signal (z-score),[6],-0.016
same,glycan array binding signal (z-score),[7],-0.159
same,glycan array binding signal (z-score),[8],-0.135
same,glycan array binding signal (z-score),[9],-0.034
same,glycan array binding signal (z-score),[10],0.007
same,glycan array binding signal (z-score),[11],-0.01
same,glycan array binding signal (z-score),[12],-0.036
same,glycan array binding signal (z-score),Gal(b1-4)Glc,-0.087
same,glycan array binding signal (z-score),Gal(b1-4)Glc6S,-0.038
same,glycan array binding signal (z-score),Gal(b1-4)GlcNAc,-0.102
same,glycan array binding signal (z-score),[13],0.171
same,glycan array binding signal (z-score),[14],0.035
same,glycan array binding signal (z-score),[15],-0.265
same,glycan array binding signal (z-score),[16],0.09
same,glycan array binding signal (z-score),[17],0.09
same,glycan array binding signal (z-score),[18],0.195
same,glycan array binding signal (z-score),[19],-0.11
same,glycan array binding signal (z-score),[20],-0.135
same,glycan array binding signal (z-score),[21],0.004
same,glycan array binding signal (z-score),[22],-0.006
same,glycan array binding signal (z-score),[23],-0.092
same,glycan array binding signal (z-score),[24],0.008
same,glycan array binding signal (z-score),[25],-0.133
same,glycan array binding signal (z-score),[26],-0.185
same,glycan array binding signal (z-score),[27],-0.146
same,glycan array binding signal (z-score),[28],0.136
same,glycan array binding signal (z-score),[29],0.036
same,glycan array binding signal (z-score),[30],0.012
same,glycan array binding signal (z-score),[31],-0.207
same,glycan array binding signal (z-score),[32],0.065
same,glycan array binding signal (z-score),[33],0.116
same,glycan array binding signal (z-score),[34],-0.128
same,glycan array binding signal (z-score),[35],-0.03
same,glycan array binding signal (z-score),Gal3S(b1-3)GalNAc,-0.096
same,glycan array binding signal (z-score),Gal3S(b1-3)GlcNAc,-0.182
same,glycan array binding signal (z-score),[36],-0.069
same,glycan array binding signal (z-score),Gal3S(b1-4)Glc,-0.206
same,glycan array binding signal (z-score),Gal3S(b1-4)Glc6S,-0.149
same,glycan array binding signal (z-score),Gal3S(b1-4)GlcNAc,-0.183
same,glycan array binding signal (z-score),Gal3S(b1-4)GlcNAc6S,-0.208
